# Assay results from the supplement of paper PMC8728848.
# Some of the results follow.
# B1: PNA (Arachis hypogaea), P02872 (protein)
# chain: MKPFCVFLTFFLLLAASSKKVDSAETVSFNFNSFSEGNPAINFQGDVTVLSNGNIQLTNLNKVNSVGRVLYAMPVRIWSSATGNVASFLTSFSFEMKDIKDYDPADGIIFFIAPEDTQIPAGSIGGGTLGVSDTKGAGHFVGVEFDTYSNSEYNDPPTDHVGIDVNSVDSVKTVPWNSVSGAVVKVTVIYDSSTKTLSVAVTNDNGDITTIAQVVDLKAKLPERVKFGFSASGSLGGRQIHLIRSWSFTSTLITTTRRSIDNNEKKIMNMASA
# Experiments:
# Test in all cases: glycan array binding signal (z-score within array); higher = stronger binding
# Details in all cases: glycan notation: IUPAC condensed, linker removed
# [1] = target: Neu5Ac(a2-3)Gal(b1-4)GlcNAc(b1-2)Man(a1-3)[GlcNAc(b1-2)Man(b1-4)GlcNAc(b1-2)Man(a1-6)]Man(b1-4)GlcNAc(b1-4)GlcNAc
# Outline: (§1)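 Glycan array binding is given as a within-array Z-score, which can be read as non-binding when negative. The arrays, 3228 of them, came from the Consortium for Functional Glycomics database and were retained only where the protein sequence was available. Z-scores were averaged across arrays of the same protein sequence at different concentrations or buffers and across linkers.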
# [2] = target: Neu5Ac(a2-3)Gal(b1-4)GlcNAc(b1-2)Man(a1-3)[GlcNAc(b1-4)][Neu5Ac(a2-3)Gal(b1-4)GlcNAc(b1-2)Man(a1-6)]Man(b1-4)GlcNAc(b1-4)GlcNAc
# Outline: as §1
# [3] = target: Neu5Ac(a2-3)Gal(b1-4)GlcNAc(b1-2)Man(a1-3)[Neu5Ac(a2-3)Gal(b1-4)GlcNAc(b1-2)Man(a1-6)]Man(b1-4)GlcNAc(b1-4)GlcNAc
# Outline: as §1
# [4] = target: Neu5Ac(a2-3)Gal(b1-4)GlcNAc(b1-2)Man(a1-3)[Neu5Ac(a2-3)Gal(b1-4)GlcNAc(b1-2)Man(a1-6)]Man(b1-4)GlcNAc(b1-4)[Fuc(a1-6)]GlcNAc
# Outline: as §1
# [5] = target: Neu5Ac(a2-3)Gal(b1-4)GlcNAc(b1-2)Man(a1-3)[Neu5Ac(a2-6)Gal(b1-4)GlcNAc(b1-2)Man(a1-6)]Man(b1-4)GlcNAc(b1-4)GlcNAc
# Outline: as §1
# [6] = target: Neu5Ac(a2-3)Gal(b1-4)GlcNAc(b1-2)[Neu5Ac(a2-3)Gal(b1-4)GlcNAc(b1-4)]Man(a1-3)[GlcNAc(b1-4)][Neu5Ac(a2-3)Gal(b1-4)GlcNAc(b1-2)[Neu5Ac(a2-3)Gal(b1-4)GlcNAc(b1-6)]Man(a1-6)]Man(b1-4)GlcNAc(b1-4)GlcNAc
# Outline: as §1
# [7] = target: Neu5Ac(a2-3)Gal(b1-4)GlcNAc(b1-2)[Neu5Ac(a2-3)Gal(b1-4)GlcNAc(b1-4)]Man(a1-3)[GlcNAc(b1-4)][Neu5Ac(a2-3)Gal(b1-4)GlcNAc(b1-4)Man(a1-6)]Man(b1-4)GlcNAc(b1-4)GlcNAc
# Outline: as §1
# [8] = target: Neu5Ac(a2-3)Gal(b1-4)GlcNAc(b1-2)[Neu5Ac(a2-3)Gal(b1-4)GlcNAc(b1-6)]Man(a1-6)[Neu5Ac(a2-3)Gal(b1-4)GlcNAc(b1-2)Man(a1-3)]Man(b1-4)GlcNAc(b1-4)GlcNAc
# Outline: as §1
# [9] = target: Neu5Ac(a2-3)Gal(b1-4)GlcNAc(b1-2)[Neu5Ac(a2-3)Gal(b1-4)GlcNAc(b1-6)]Man(a1-6)[Neu5Ac(a2-3)Gal(b1-4)GlcNAc(b1-2)Man(a1-3)][GlcNAc(b1-4)]Man(b1-4)GlcNAc(b1-4)GlcNAc
# Outline: as §1
# [10] = target: Neu5Ac(a2-3)Gal(b1-4)GlcNAc(b1-3)Gal
# Outline: as §1
# [11] = target: Neu5Ac(a2-3)Gal(b1-4)GlcNAc(b1-3)Gal(b1-3)GlcNAc
# Outline: as §1
# [12] = target: Neu5Ac(a2-3)Gal(b1-4)GlcNAc(b1-3)Gal(b1-4)Glc
# Outline: as §1
# [13] = target: Neu5Ac(a2-3)Gal(b1-4)GlcNAc(b1-3)Gal(b1-4)GlcNAc
# Outline: as §1
# [14] = target: Neu5Ac(a2-3)Gal(b1-4)GlcNAc(b1-3)Gal(b1-4)GlcNAc(b1-2)Man(a1-3)[Neu5Ac(a2-3)Gal(b1-4)GlcNAc(b1-3)Gal(b1-4)GlcNAc(b1-2)Man(a1-6)]Man(b1-4)GlcNAc(b1-4)GlcNAc
# Outline: as §1
# [15] = target: Neu5Ac(a2-3)Gal(b1-4)GlcNAc(b1-3)Gal(b1-4)GlcNAc(b1-3)Gal(b1-4)GlcNAc
# Outline: as §1
# [16] = target: Neu5Ac(a2-3)Gal(b1-4)GlcNAc(b1-3)Gal(b1-4)GlcNAc(b1-3)Gal(b1-4)GlcNAc(b1-2)Man(a1-3)[Neu5Ac(a2-3)Gal(b1-4)GlcNAc(b1-3)Gal(b1-4)GlcNAc(b1-3)Gal(b1-4)GlcNAc(b1-2)Man(a1-6)]GalNAc
# Outline: as §1
# [17] = target: Neu5Ac(a2-3)Gal(b1-4)GlcNAc(b1-3)Gal(b1-4)GlcNAc(b1-3)GalNAc
# Outline: as §1
# [18] = target: Neu5Ac(a2-3)Gal(b1-4)GlcNAc(b1-3)Gal(b1-4)GlcNAc(b1-3)[Neu5Ac(a2-3)Gal(b1-4)GlcNAc(b1-3)Gal(b1-4)GlcNAc(b1-6)]GalNAc
# Outline: as §1
# [19] = target: Neu5Ac(a2-3)Gal(b1-4)GlcNAc(b1-3)Gal(b1-4)GlcNAc(b1-6)[Gal(b1-3)]GalNAc
# Outline: as §1
# [20] = target: Neu5Ac(a2-3)Gal(b1-4)GlcNAc(b1-3)Gal(b1-4)[Fuc(a1-3)]GlcNAc
# Outline: as §1
# [21] = target: Neu5Ac(a2-3)Gal(b1-4)GlcNAc(b1-3)GalNAc
# Outline: as §1
# [22] = target: Neu5Ac(a2-3)Gal(b1-4)GlcNAc(b1-3)[Neu5Ac(a2-3)Gal(b1-4)GlcNAc(b1-6)]GalNAc
# Outline: as §1
# [23] = target: Neu5Ac(a2-3)Gal(b1-4)GlcNAc(b1-6)GalNAc
# Outline: as §1
# [24] = target: Neu5Ac(a2-3)Gal(b1-4)GlcNAc(b1-6)GalNAc(a1-3)Gal(b1-4)Glc
# Outline: as §1
# [25] = target: Neu5Ac(a2-3)Gal(b1-4)GlcNAc(b1-6)[Gal(b1-3)]GalNAc
# Outline: as §1
# [26] = target: Neu5Ac(a2-3)Gal(b1-4)GlcNAc(b1-6)[Neu5Ac(a2-3)Gal(b1-3)]GalNAc
# Outline: as §1
# [27] = target: Neu5Ac(a2-3)Gal(b1-4)GlcNAc6S
# Outline: as §1
# [28] = target: Neu5Ac(a2-3)Gal(b1-4)GlcNAc6S(b1-3)Gal6S(b1-3)GlcNAc6S
# Outline: as §1
# [29] = target: Neu5Ac(a2-3)Gal(b1-4)[3dFuc(a1-3)]GlcNAc(b1-3)Gal
# Outline: as §1
# [30] = target: Neu5Ac(a2-3)Gal(b1-4)[4dFuc(a1-3)]GlcNAc(b1-3)Gal
# Outline: as §1
# [31] = target: Neu5Ac(a2-3)Gal(b1-4)[6dTal(a1-3)]GlcNAc(b1-3)Gal
# Outline: as §1
# [32] = target: Neu5Ac(a2-3)Gal(b1-4)[Fuc(a1-3)]Glc
# Outline: as §1
# [33] = target: Neu5Ac(a2-3)Gal(b1-4)[Fuc(a1-3)]GlcNAc
# Outline: as §1
# [34] = target: Neu5Ac(a2-3)Gal(b1-4)[Fuc(a1-3)]GlcNAc(b1-2)Man
# Outline: as §1
# [35] = target: Neu5Ac(a2-3)Gal(b1-4)[Fuc(a1-3)]GlcNAc(b1-3)Gal
# Outline: as §1
# [36] = target: Neu5Ac(a2-3)Gal(b1-4)[Fuc(a1-3)]GlcNAc(b1-3)Gal(b1-4)Glc
# Outline: as §1
# [37] = target: Neu5Ac(a2-3)Gal(b1-4)[Fuc(a1-3)]GlcNAc(b1-3)Gal(b1-4)GlcNAc
# Outline: as §1
# [38] = target: Neu5Ac(a2-3)Gal(b1-4)[Fuc(a1-3)]GlcNAc(b1-3)Gal(b1-4)[Fuc(a1-3)]GlcNAc(b1-3)Gal(b1-4)Glc
# Outline: as §1
binder,measurement,setting,value
B1,glycan array binding signal (z-score),[1],-0.14
same,glycan array binding signal (z-score),[2],-0.379
same,glycan array binding signal (z-score),[3],-0.148
same,glycan array binding signal (z-score),[4],-0.306
same,glycan array binding signal (z-score),[5],-0.17
same,glycan array binding signal (z-score),[6],-0.366
same,glycan array binding signal (z-score),[7],-0.266
same,glycan array binding signal (z-score),[8],-0.349
same,glycan array binding signal (z-score),[9],-0.34
same,glycan array binding signal (z-score),[10],-0.289
same,glycan array binding signal (z-score),[11],-0.104
same,glycan array binding signal (z-score),[12],-0.195
same,glycan array binding signal (z-score),[13],-0.171
same,glycan array binding signal (z-score),[14],0.479
same,glycan array binding signal (z-score),[15],-0.166
same,glycan array binding signal (z-score),[16],0.982
same,glycan array binding signal (z-score),[17],-0.161
same,glycan array binding signal (z-score),[18],-0.088
same,glycan array binding signal (z-score),[19],1.43
same,glycan array binding signal (z-score),[20],-0.217
same,glycan array binding signal (z-score),[21],-0.182
same,glycan array binding signal (z-score),[22],-0.1
same,glycan array binding signal (z-score),[23],-0.257
same,glycan array binding signal (z-score),[24],-0.195
same,glycan array binding signal (z-score),[25],0.962
same,glycan array binding signal (z-score),[26],-0.177
same,glycan array binding signal (z-score),[27],-0.264
same,glycan array binding signal (z-score),[28],-0.195
same,glycan array binding signal (z-score),[29],-0.195
same,glycan array binding signal (z-score),[30],-0.195
same,glycan array binding signal (z-score),[31],-0.195
same,glycan array binding signal (z-score),[32],-0.195
same,glycan array binding signal (z-score),[33],-0.192
same,glycan array binding signal (z-score),[34],-0.295
same,glycan array binding signal (z-score),[35],-0.198
same,glycan array binding signal (z-score),[36],-0.195
same,glycan array binding signal (z-score),[37],-0.122
same,glycan array binding signal (z-score),[38],-0.195
